# According to the supplement of paper PMC10037445:
# Whole data set: some 2,900 compounds, median “NF-kB SEAP reporter activity, fold change vs agonist alone” near 0.99, cut for the highest 2% near 2.6. The list shows a part of the results.
# What was measured:
# RAW-Dual [1] = experiment: NF-kB SEAP reporter activity, fold change vs agonist alone; cytotoxicity flag (confluency mask): cytotoxic (confluency <70% of control); higher = enhanced NF-kB activity
# Procedure, shortened: (§1)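 RAW-Dual macrophages (50,000 cells/well in DMEM, 384-well plates) received 50 nL of library stock by pin tool, then a PRR agonist 1 h later, and were kept at 37 °C, 5% CO2. After 20 hours, supernatant was read for IRF by QuantiLuc luminescence and for NF-κB by QuantiBlue absorbance at 620 nm. Reporter activity is fold change over agonist-alone wells. Cytotoxic wells had IncuCyte confluency below 70% of agonist controls in both mask sets.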
# RAW-Dual [2] = experiment: NF-kB SEAP reporter activity, fold change vs agonist alone; higher = enhanced NF-kB activity; conditions: library stock concentration (final ~1000-fold dilution): 10 mM
# Procedure, shortened: as §1
# RAW-Dual [3] = experiment: NF-kB SEAP reporter activity, fold change vs agonist alone; cytotoxicity flag (confluency mask): not cytotoxic; higher = enhanced NF-kB activity
# Procedure, shortened: as §1
# [4] = agonist: ODN 1826 (TLR9) 0.5 ug/mL
# [5] = agonist: Pam2CSK4 (TLR2/6) 0.1 ug/mL
# [6] = agonist: Pam3CSK4 (TLR2/1) 0.1 ug/mL
# [7] = cytotoxicity flag (confluency mask): cytotoxic (confluency <70% of control), agonist: Imiquimod (TLR7) […]
# [8] = cytotoxicity flag (confluency mask): cytotoxic (confluency <70% of control), agonist: MPLA (TLR4) […]
# [9] = cytotoxicity flag (confluency mask): not cytotoxic, agonist: Imiquimod (TLR7) […]
# [10] = cytotoxicity flag (confluency mask): not cytotoxic, agonist: MPLA (TLR4) […]
compound,measurement,setting,value
CN(CCNc1ccnc2cc(Cl)ccc12)CCNc1ccnc2cc(Cl)ccc12.Cl.Cl.Cl (library stock concentration (final ~1000-fold dilution): 10 mM),NF-kB SEAP reporter activity,RAW-Dual [1]; agonist: LPS (TLR4) 0.1 ug/mL,4.28
same,NF-kB SEAP reporter activity,RAW-Dual [1]; [4],0.547
same,NF-kB SEAP reporter activity,RAW-Dual [1]; [5],1.63
same,NF-kB SEAP reporter activity,RAW-Dual [1]; [6],2.17
CN(CCNc1ccnc2cc(Cl)ccc12)CCNc1ccnc2cc(Cl)ccc12.Cl.Cl.Cl,NF-kB SEAP reporter activity,RAW-Dual [2]; [7],0.958
same,NF-kB SEAP reporter activity,RAW-Dual [2]; [8],2.39
COc1cc(O)c2c(=O)cc(-c3ccc(O)cc3)oc2c1,NF-kB SEAP reporter activity,RAW-Dual [2]; [9],1.14
same,NF-kB SEAP reporter activity,RAW-Dual [2]; [10],1.24
COc1cc(O)c2c(=O)cc(-c3ccc(O)cc3)oc2c1 (library stock concentration (final ~1000-fold dilution): 10 mM),NF-kB SEAP reporter activity,RAW-Dual [3]; agonist: LPS (TLR4) 0.1 ug/mL,1.38
same,NF-kB SEAP reporter activity,RAW-Dual [3]; [4],1.21
same,NF-kB SEAP reporter activity,RAW-Dual [3]; [5],1.14
same,NF-kB SEAP reporter activity,RAW-Dual [3]; [6],1.64
COc1cc2c(cc1OC)C1Cc3ccc(OC)c(OC)c3CN1CC2.Cl (stereo unspecified) (library stock concentration (final ~1000-fold dilution): 10 mM),NF-kB SEAP reporter activity,RAW-Dual [3]; agonist: LPS (TLR4) 0.1 ug/mL,1.17
same,NF-kB SEAP reporter activity,RAW-Dual [3]; [4],0.984
same,NF-kB SEAP reporter activity,RAW-Dual [3]; [5],1.2
same,NF-kB SEAP reporter activity,RAW-Dual [3]; [6],1.08
COc1cc2c(cc1OC)C1Cc3ccc(OC)c(OC)c3CN1CC2.Cl (stereo unspecified),NF-kB SEAP reporter activity,RAW-Dual [2]; [9],0.869
same,NF-kB SEAP reporter activity,RAW-Dual [2]; [10],0.981
CCN(CC)CCOC(=O)C(c1ccccc1)c1ccccc1.Cl (library stock concentration (final ~1000-fold dilution): 10 mM),NF-kB SEAP reporter activity,RAW-Dual [3]; agonist: LPS (TLR4) 0.1 ug/mL,1.05
same,NF-kB SEAP reporter activity,RAW-Dual [3]; [4],0.803
same,NF-kB SEAP reporter activity,RAW-Dual [3]; [5],0.843
same,NF-kB SEAP reporter activity,RAW-Dual [3]; [6],1.14
CCN(CC)CCOC(=O)C(c1ccccc1)c1ccccc1.Cl,NF-kB SEAP reporter activity,RAW-Dual [2]; [9],0.999
same,NF-kB SEAP reporter activity,RAW-Dual [2]; [10],1.13
Cc1nc(-c2ccc(OCC(C)C)c(C#N)c2)sc1C(=O)O,NF-kB SEAP reporter activity,RAW-Dual [2]; [9],1.1
same,NF-kB SEAP reporter activity,RAW-Dual [2]; [10],1.04
Cc1nc(-c2ccc(OCC(C)C)c(C#N)c2)sc1C(=O)O (library stock concentration (final ~1000-fold dilution): 10 mM),NF-kB SEAP reporter activity,RAW-Dual [3]; agonist: LPS (TLR4) 0.1 ug/mL,1.09
same,NF-kB SEAP reporter activity,RAW-Dual [3]; [4],1.26
same,NF-kB SEAP reporter activity,RAW-Dual [3]; [5],1.13
same,NF-kB SEAP reporter activity,RAW-Dual [3]; [6],1.35
CCCCc1ccc(O)cc1O,NF-kB SEAP reporter activity,RAW-Dual [2]; [10],1.17
CCCCc1ccc(O)cc1O (library stock concentration (final ~1000-fold dilution): 10 mM),NF-kB SEAP reporter activity,RAW-Dual [3]; agonist: LPS (TLR4) 0.1 ug/mL,1.05
same,NF-kB SEAP reporter activity,RAW-Dual [3]; [4],0.852
same,NF-kB SEAP reporter activity,RAW-Dual [3]; [5],0.993
same,NF-kB SEAP reporter activity,RAW-Dual [3]; [6],1.14
CCOP(=O)(OCC)C(=Cc1cc(C(C)(C)C)c(O)c(C(C)(C)C)c1)P(=O)(OCC)OCC (library stock concentration (final ~1000-fold dilution): 10 mM),NF-kB SEAP reporter activity,RAW-Dual [3]; agonist: LPS (TLR4) 0.1 ug/mL,1.35
same,NF-kB SEAP reporter activity,RAW-Dual [3]; [4],1.27
same,NF-kB SEAP reporter activity,RAW-Dual [3]; [5],0.899
same,NF-kB SEAP reporter activity,RAW-Dual [3]; [6],0.793
CCOP(=O)(OCC)C(=Cc1cc(C(C)(C)C)c(O)c(C(C)(C)C)c1)P(=O)(OCC)OCC,NF-kB SEAP reporter activity,RAW-Dual [2]; [9],1.13
same,NF-kB SEAP reporter activity,RAW-Dual [2]; [10],1.52
Cc1cc2c(F)c(Oc3ncnn4cc(OCC(C)OC(=O)C(C)N)c(C)c34)ccc2[nH]1 (stereo unspecified),NF-kB SEAP reporter activity,RAW-Dual [2]; [7],1.98
same,NF-kB SEAP reporter activity,RAW-Dual [2]; [8],1.72
Cc1cc2c(F)c(Oc3ncnn4cc(OCC(C)OC(=O)C(C)N)c(C)c34)ccc2[nH]1 (stereo unspecified) (library stock concentration (final ~1000-fold dilution): 10 mM),NF-kB SEAP reporter activity,RAW-Dual [1]; agonist: LPS (TLR4) 0.1 ug/mL,1.52
same,NF-kB SEAP reporter activity,RAW-Dual [1]; [4],0.94
same,NF-kB SEAP reporter activity,RAW-Dual [1]; [5],0.759
same,NF-kB SEAP reporter activity,RAW-Dual [1]; [6],1.13
Cc1ccc2c(=O)c3cccc(CC(=O)O)c3oc2c1C,NF-kB SEAP reporter activity,RAW-Dual [2]; [9],0.955
same,NF-kB SEAP reporter activity,RAW-Dual [2]; [10],0.964
Cc1ccc2c(=O)c3cccc(CC(=O)O)c3oc2c1C (library stock concentration (final ~1000-fold dilution): 10 mM),NF-kB SEAP reporter activity,RAW-Dual [3]; agonist: LPS (TLR4) 0.1 ug/mL,1.98
same,NF-kB SEAP reporter activity,RAW-Dual [3]; [4],1.09
same,NF-kB SEAP reporter activity,RAW-Dual [3]; [5],1.65
same,NF-kB SEAP reporter activity,RAW-Dual [3]; [6],1.45
CC(C)(c1ccc(OCC(O)CO)cc1)c1ccc(OCC(O)CCl)cc1 (stereo unspecified),NF-kB SEAP reporter activity,RAW-Dual [2]; [9],0.976
same,NF-kB SEAP reporter activity,RAW-Dual [2]; [10],1.1
CC(C)(c1ccc(OCC(O)CO)cc1)c1ccc(OCC(O)CCl)cc1 (stereo unspecified) (library stock concentration (final ~1000-fold dilution): 10 mM),NF-kB SEAP reporter activity,RAW-Dual [3]; agonist: LPS (TLR4) 0.1 ug/mL,0.908
same,NF-kB SEAP reporter activity,RAW-Dual [3]; [4],0.823
same,NF-kB SEAP reporter activity,RAW-Dual [3]; [5],0.857
same,NF-kB SEAP reporter activity,RAW-Dual [3]; [6],0.782
O=C(Nc1ccc(Cl)cc1)c1cc2ccccc2cc1OP(=O)(O)O,NF-kB SEAP reporter activity,RAW-Dual [2]; [9],0.877
same,NF-kB SEAP reporter activity,RAW-Dual [2]; [10],1.04
O=C(Nc1ccc(Cl)cc1)c1cc2ccccc2cc1OP(=O)(O)O (library stock concentration (final ~1000-fold dilution): 10 mM),NF-kB SEAP reporter activity,RAW-Dual [3]; agonist: LPS (TLR4) 0.1 ug/mL,1.08
same,NF-kB SEAP reporter activity,RAW-Dual [3]; [4],0.965
same,NF-kB SEAP reporter activity,RAW-Dual [3]; [5],0.931
same,NF-kB SEAP reporter activity,RAW-Dual [3]; [6],0.763
CCOC(=O)c1[nH]c2cc(Cl)ccc2c1C(C(=O)NC(C)(C)C)N(C=O)Cc1ccc(Cl)cc1 (stereo unspecified) (library stock concentration (final ~1000-fold dilution): 10 mM),NF-kB SEAP reporter activity,RAW-Dual [3]; agonist: LPS (TLR4) 0.1 ug/mL,2.05
same,NF-kB SEAP reporter activity,RAW-Dual [3]; [4],0.873
same,NF-kB SEAP reporter activity,RAW-Dual [3]; [5],0.569
same,NF-kB SEAP reporter activity,RAW-Dual [3]; [6],0.348
CCOC(=O)c1[nH]c2cc(Cl)ccc2c1C(C(=O)NC(C)(C)C)N(C=O)Cc1ccc(Cl)cc1 (stereo unspecified),NF-kB SEAP reporter activity,RAW-Dual [2]; [9],0.883
same,NF-kB SEAP reporter activity,RAW-Dual [2]; [10],1.5
CCCCN1CCCCC1C(=O)Nc1c(C)cccc1C (stereo unspecified) (library stock concentration (final ~1000-fold dilution): 10 mM),NF-kB SEAP reporter activity,RAW-Dual [3]; agonist: LPS (TLR4) 0.1 ug/mL,1.12
same,NF-kB SEAP reporter activity,RAW-Dual [3]; [4],0.908
same,NF-kB SEAP reporter activity,RAW-Dual [3]; [5],0.898
same,NF-kB SEAP reporter activity,RAW-Dual [3]; [6],1.01
CCCCN1CCCCC1C(=O)Nc1c(C)cccc1C (stereo unspecified),NF-kB SEAP reporter activity,RAW-Dual [2]; [9],0.941
same,NF-kB SEAP reporter activity,RAW-Dual [2]; [10],1.06
CC(=O)OC1(C(C)=O)CCC2C3C=C(C)C4=CC(=O)CCC4(C)C3CCC21C (stereo unspecified) (library stock concentration (final ~1000-fold dilution): 10 mM),NF-kB SEAP reporter activity,RAW-Dual [3]; agonist: LPS (TLR4) 0.1 ug/mL,0.908
same,NF-kB SEAP reporter activity,RAW-Dual [3]; [4],1.22
same,NF-kB SEAP reporter activity,RAW-Dual [3]; [5],1.13
same,NF-kB SEAP reporter activity,RAW-Dual [3]; [6],1.27
